Experimental data reported in the supplement of paper PMC6089552.
In all, about 3,200 compounds went through this assay and about 300 (9.4%) showed activity. Only a part is listed here, and it is no random draw.

Test system: A673/TR/shEF
Assay: cell viability (LOESS-normalised, relative to median of negative controls) (log2 ratio); higher = more viable cells (less compound effect), active = hit call of the paper (over 3 MAD below the median)
Settings: treatment time: 72 h
Outline: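 Viability of A673/TR/shEF Ewing sarcoma cells was determined by CellTiter-Glo luminescence. The cells, at 1,500 per well in 384-well plates, were grown with or without doxycycline from 24 h before compound addition to switch on EWS-FLI1 shRNA knockdown, then exposed for three days to library compounds at two or more concentrations or to DMSO controls. Signals were LOESS-corrected plate by plate, normalised to the negative-control median and log2-transformed.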

[1] = 0.25 µM, library screen: screen1, EWS-FLI1 expression: high (no doxycycline)
[2] = 0.25 µM, library screen: screen1, EWS-FLI1 expression: low (doxycycline-induced shRNA knockdown)
[3] = 2.5 µM, library screen: screen1, EWS-FLI1 expression: high (no doxycycline)
[4] = 2.5 µM, library screen: screen1, EWS-FLI1 expression: low (doxycycline-induced shRNA knockdown)
[5] = 0.25 µM, library screen: screen2, EWS-FLI1 expression: high (no doxycycline)
[6] = 0.25 µM, library screen: screen2, EWS-FLI1 expression: low (doxycycline-induced shRNA knockdown)
[7] = 2.5 µM, library screen: screen2, EWS-FLI1 expression: high (no doxycycline)
[8] = 2.5 µM, library screen: screen2, EWS-FLI1 expression: low (doxycycline-induced shRNA knockdown)
[9] = 0.103 µM, library screen: screen3, EWS-FLI1 expression: high (no doxycycline)
[10] = 0.103 µM, library screen: screen3, EWS-FLI1 expression: low (doxycycline-induced shRNA knockdown)
[11] = 0.308 µM, library screen: screen3, EWS-FLI1 expression: high (no doxycycline)
[12] = 0.308 µM, library screen: screen3, EWS-FLI1 expression: low (doxycycline-induced shRNA knockdown)
[13] = 0.926 µM, library screen: screen3, EWS-FLI1 expression: high (no doxycycline)
[14] = 0.926 µM, library screen: screen3, EWS-FLI1 expression: low (doxycycline-induced shRNA knockdown)
[15] = 2.8 µM, library screen: screen3, EWS-FLI1 expression: high (no doxycycline)
[16] = 2.8 µM, library screen: screen3, EWS-FLI1 expression: low (doxycycline-induced shRNA knockdown)
[17] = 8.3 µM, library screen: screen3, EWS-FLI1 expression: high (no doxycycline)
[18] = 8.3 µM, library screen: screen3, EWS-FLI1 expression: low (doxycycline-induced shRNA knockdown)
[19] = 25 µM, library screen: screen3, EWS-FLI1 expression: high (no doxycycline)
[20] = 25 µM, library screen: screen3, EWS-FLI1 expression: low (doxycycline-induced shRNA knockdown)

Measured: cell viability (log2)

O=C(/C=C/c1ccccc1)c1ccc(O)cc1
inactive: [1] 0.0743 | [2] 0.0315 | [3] 0.0622 | [4] 0.0674

O=C(O)c1ccc2c(c1)OCO2
inactive: [1] 0.146 | [2] 0.102 | [3] 0.137 | [4] 0.0963

C[C@]12CC[C@H](O)C[C@H]1C[C@@H]1OC13C2[C@H](O)C(=O)[C@]1(C)[C@@H](C2=CC(=O)OC2)CC[C@]31O (stereo not given in full)
inactive: [1] 0.026 | [2] -0.0692 | [3] 0.111 | [4] -0.106

CC1=CC(=O)C2=C(C)CC[C@@H]3[C@H](OC(=O)[C@H]3C)[C@@H]12
inactive: [1] 0.0658 | [2] -0.00814 | [3] 0.0679 | [4] 0.106

CN(C)CCOC(=O)C(c1ccccc1)C1(O)CCCC1 (stereo not given)
inactive: [1] 0.0592 | [2] 0.0475 | [3] 0.185 | [4] 0.128

NC(=S)c1ccc[n+]([C@@H]2O[C@H](COP(=O)(O)OP(=O)(O)OC[C@H]3O[C@@H](n4cnc5c(N)ncnc54)[C@H](OP(=O)(O)O)[C@@H]3O)[C@@H](O)[C@H]2[O-])c1
inactive: [5] 0.209 | [6] 0.145 | [7] 0.254 | [8] 0.143

Nc1[nH]c(=O)ncc1F
inactive: [9] 0.0595 | [10] -0.0024 | [11] 0.0327 | [12] 0.0215 | [13] 0.0986 | [14] 0.0625 | [15] 0.0948 | [16] 0.0662 | [17] 0.0718 | [18] 0.0655 | [19] 0.0963 | [20] 0.073

OC[C@H]1NC[C@@H](O)[C@@H]1O
inactive: [5] 0.145 | [6] 0.102 | [7] 0.116 | [8] 0.0807

Cc1nc2c([nH]1)c(=O)n(C)c(=O)n2Cc1ccco1
inactive: [5] 0.194 | [6] 0.0162 | [7] 0.146 | [8] 0.012

CC(C)(C)NCC(O)COc1nsnc1N1CCOCC1 (stereo not given)
inactive: [5] 0.14 | [6] 0.0316 | [7] 0.202 | [8] 0.0877

NC[C@@H]1O[C@H](O[C@H]2[C@@H](O)[C@H](O[C@@H]3[C@@H](O)[C@H](N)C[C@H](N)[C@H]3O[C@H]3O[C@H](CN)[C@@H](O)[C@H](O)[C@H]3N)O[C@@H]2CO)[C@H](N)[C@@H](O)[C@@H]1O
inactive: [9] 0.11 | [10] 0.105 | [1] 0.123 | [2] 0.069 | [11] 0.0955 | [12] 0.0676 | [13] 0.0787 | [14] 0.105 | [3] 0.149 | [4] 0.0544 | [15] 0.113 | [16] 0.032 | [17] 0.0202 | [18] 0.092 | [19] 0.0145 | [20] 0.0474

CCC1(C)CC(=O)NC1=O (stereo not given)
inactive: [1] 0.116 | [2] -0.00845 | [5] 0.106 | [6] 0.0691 | [3] 0.149 | [4] 0.0817 | [7] 0.173 | [8] -0.00193

Cn1c(=O)c2c(nc(/C=C/c3cccc(Cl)c3)n2C)n(C)c1=O
inactive: [5] 0.124 | [6] 0.0223 | [7] 0.0343 | [8] 0.0759

O=S(=O)(c1cccc2cnccc12)N1CCCNCC1
active: [3] -0.187 | 25 µM, library screen: screen1, EWS-FLI1 expression: high (no doxycycline) -0.284

CCCCS(=N)(=O)CCC(N)C(=O)O (stereo not given)
inactive: [5] 0.206 | [6] 0.101 | [7] 0.0553 | [8] 0.063

COc1cccc(OC)c1OCCNCC1CSc2ccccc2O1 (stereo not given)
inactive: [5] 0.205 | [6] 0.147 | [7] -0.0369 | [8] 0.0792

CC(=O)O[C@@H]1CC2C(C)(C)[C@H](O)CC[C@]2(C)C2CC[C@@]3(C)[C@H](c4ccoc4)OC(=O)C4OC43[C@@]21C (stereo not given in full)
inactive: [1] 0.0586 | [2] 0.071 | [3] 0.0532 | [4] 0.116

CCC(C)(C)C(=O)O[C@H]1C[C@@H](C)C=C2C=C[C@H](C)[C@H](CC[C@@H]3C[C@@H](O)CC(=O)O3)[C@H]21
active: [19] -1.27 | [20] -1.32
inactive: [9] 0.14 | [10] 0.05 | [1] 0.0551 | [2] -0.0746 | [11] 0.153 | [12] 0.105 | [13] 0.0408 | [14] 0.0447 | [3] 0.0209 | [4] -0.321 | [15] 0.107 | [16] -0.0366 | [17] -0.0829 | [18] -0.13

CC(=O)Oc1ccc(C(c2ccc(OC(C)=O)cc2)c2ccccn2)cc1
inactive: [1] 0.106 | [2] 0.00689 | [3] 0.153 | [4] 0.0151

COc1cc2nc(N3CCN(C(=O)C4=C[C@H]5C=C[C@@H]4CC5)CC3)nc(N)c2cc1OC
inactive: [5] 0.165 | [6] 0.0668 | [7] 0.132 | [8] 0.0728

N=c1nc(N2CCCCC2)cc(N)n1O
inactive: [9] 0.069 | [10] 0.0737 | [1] 0.0723 | [2] -0.00153 | [5] 0.135 | [6] 0.117 | [11] -0.00781 | [12] 0.0103 | [13] 0.0329 | [14] 0.0505 | [3] 0.141 | [4] 0.0368 | [7] 0.0983 | [8] 0.105 | [15] -0.0316 | [16] 0.051 | [17] 0.033 | [18] 0.0706 | [19] -0.0136 | [20] 0.097

CC1(C)C[C@H](O)[C@]23CC[C@@H](O)[C@@](C)(CC[C@@H]12)C3
inactive: [1] 0.155 | [2] 0.054 | [3] 0.181 | [4] 0.0139

COc1cc(CNC(=O)CCCCCCC(C)C)ccc1O
inactive: [5] 0.0355 | [6] 0.0882 | [7] 0.0716 | [8] 0.0265

N#CC[C@H](C1CCCC1)n1cc(-c2ncnc3[nH]ccc23)cn1
inactive: [9] 0.0244 | [10] 0.0464 | [11] 0.0636 | [12] 0.0529 | [13] 0.0664 | [14] 0.0824 | [15] 0.077 | [16] 0.076 | [17] 0.111 | [18] 0.157 | [19] 0.0975 | [20] 0.133

C[N+](C)(C)CC(=O)[O-]
inactive: [1] 0.101 | [2] 0.159 | [5] 0.279 | [6] 0.119 | [3] 0.0973 | [4] 0.195 | [7] 0.084 | [8] 0.0352

COc1cc(O)c(C(=O)/C=C/c2ccccc2)c(OC)c1
inactive: [1] 0.0291 | [2] 0.0765 | [3] 0.107 | [4] 0.0766

CC(C)N1C(=O)C(=Cc2ccccc2F)SC1=S
inactive: [1] 0.0965 | [2] 0.0324 | [3] 0.0812 | [4] -0.039

NNC(=O)c1ccncc1.Nc1ccc(C(=O)O)c(O)c1
inactive: [1] 0.145 | [2] 0.169 | [3] 0.145 | [4] 0.0892

O=C(O)c1ccccc1Nc1cccc(OCc2ccc3ccccc3n2)c1
inactive: [5] 0.128 | [6] 0.0806 | [7] 0.186 | [8] 0.057

COc1cc(C(O)C(=O)O)ccc1O (stereo not given)
inactive: [5] 0.194 | [6] 0.0173 | [7] 0.157 | [8] 0.0587

COC1=C(OC)C(=O)C(C/C=C(\C)CC/C=C(\C)CC/C=C(\C)CC/C=C(\C)CC/C=C(\C)CC/C=C(\C)CC/C=C(\C)CC/C=C(\C)CC/C=C(\C)CCC=C(C)C)=C(C)C1=O
inactive: [1] 0.0717 | [2] 0.153 | [3] 0.193 | [4] 0.233

COc1ccc(CC(=O)c2ccc(O)cc2O)cc1
inactive: [1] 0.0221 | [2] -0.0106 | [3] 0.12 | [4] 0.0534

Cc1c(OCC(F)(F)F)ccnc1C[S+]([O-])c1nc2ccccc2[nH]1 (stereo not given)
inactive: [9] 0.0918 | [10] 0.101 | [1] 0.136 | [2] 0.0633 | [5] 0.166 | [6] 0.0843 | [11] 0.0516 | [12] 0.0264 | [13] 0.0709 | [14] 0.0884 | [3] 0.133 | [4] 0.126 | [7] 0.122 | [8] 0.0984 | [15] 0.0259 | [16] 0.0107 | [17] -0.0254 | [18] 0.0817 | [20] 0.0393
active: [19] -0.241

[N-]=[N+]=Nc1ccc(C(=O)CSC[C@H](NC(=O)CC[C@H](N)C(=O)O)C(=O)NCC(=O)O)cc1
inactive: [5] 0.136 | [6] 0.104 | [7] 0.109 | [8] 0.172

Cn1c(=O)c2c(ncn2C)n(C)c1=O
inactive: [1] 0.139 | [2] 0.11 | [5] 0.294 | [6] 0.141 | [3] 0.191 | [4] 0.106 | [7] 0.162 | [8] 0.113

CCCCCCCC/C=C\CCCCCCCC(=O)O
inactive: [5] 0.0706 | [6] 0.117 | [7] 0.0994 | [8] 0.08

CCC(C)C(N)C1=NC(C(=O)N[C@@H](CC(C)C)C(=O)N[C@H](CCC(=O)O)C(=O)N[C@H](C(=O)N[C@H]2CCCCNC(=O)[C@H](CC(N)=O)NC(=O)[C@@H](CC(=O)O)NC(=O)[C@H](Cc3cnc[nH]3)NC(=O)[C@@H](Cc3ccccc3)NC(=O)[C@H]([C@@H](C)CC)NC(=O)[C@@H](CCCN)NC2=O)[C@@H](C)CC)CS1 (stereo not given in full)
inactive: [1] 0.0992 | [2] -0.0505 | [3] 0.131 | [4] 0.0875
